This is an account of results in PMC5700166.

What all share (test): protein-binding microarray (PBM)
Settings in all cases: PBM: ~300 nM protein, 6 mM HEPES pH 7.8, 80 mM KCl, 0.5 mM EDTA, 0.5 mM EGTA, 6% glycerol, 35 ng/ul poly-dIdC, 1% milk, 1 h, room temperature; Ap Aiptasia and Nv Nematostella (sea anemones) / Co Capsaspora / Aq Amphimedon (sponge) / Dm Drosophila / Hu human; RHD is the Rel homology domain; high values mean tight binding; most listed sequences are background and not binding sites; double strand, one strand shown

The target of one assay is T1, GST-Ap-NF-kB RHD (UniProt A0A913YAJ5).
T1 sequence: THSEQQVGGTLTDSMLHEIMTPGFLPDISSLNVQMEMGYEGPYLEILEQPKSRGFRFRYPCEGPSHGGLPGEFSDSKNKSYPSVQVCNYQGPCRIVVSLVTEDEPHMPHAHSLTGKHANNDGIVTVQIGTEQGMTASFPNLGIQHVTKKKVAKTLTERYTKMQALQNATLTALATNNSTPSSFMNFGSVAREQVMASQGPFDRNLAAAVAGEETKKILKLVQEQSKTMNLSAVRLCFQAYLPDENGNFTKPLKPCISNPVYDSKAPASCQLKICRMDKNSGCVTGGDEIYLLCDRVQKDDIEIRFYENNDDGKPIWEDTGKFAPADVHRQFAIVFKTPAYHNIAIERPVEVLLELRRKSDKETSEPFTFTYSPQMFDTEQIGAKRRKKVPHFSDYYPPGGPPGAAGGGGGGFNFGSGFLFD

A further assay addresses T2, GST-Co-NF-kB (UniProt F1ARL5).
T2 sequence: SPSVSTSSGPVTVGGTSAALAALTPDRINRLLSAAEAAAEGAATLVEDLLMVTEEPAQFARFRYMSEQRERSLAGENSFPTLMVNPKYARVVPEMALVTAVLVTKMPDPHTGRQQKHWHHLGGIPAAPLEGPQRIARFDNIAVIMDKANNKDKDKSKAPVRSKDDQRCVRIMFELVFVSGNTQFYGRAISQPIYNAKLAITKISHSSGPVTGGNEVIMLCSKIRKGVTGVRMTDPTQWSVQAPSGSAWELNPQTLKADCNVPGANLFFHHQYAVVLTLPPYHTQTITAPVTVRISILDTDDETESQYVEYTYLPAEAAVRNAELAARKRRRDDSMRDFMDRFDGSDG

In another assay the target is T3, GST-Dm-Relish (UniProt Q94527).
T3 sequence: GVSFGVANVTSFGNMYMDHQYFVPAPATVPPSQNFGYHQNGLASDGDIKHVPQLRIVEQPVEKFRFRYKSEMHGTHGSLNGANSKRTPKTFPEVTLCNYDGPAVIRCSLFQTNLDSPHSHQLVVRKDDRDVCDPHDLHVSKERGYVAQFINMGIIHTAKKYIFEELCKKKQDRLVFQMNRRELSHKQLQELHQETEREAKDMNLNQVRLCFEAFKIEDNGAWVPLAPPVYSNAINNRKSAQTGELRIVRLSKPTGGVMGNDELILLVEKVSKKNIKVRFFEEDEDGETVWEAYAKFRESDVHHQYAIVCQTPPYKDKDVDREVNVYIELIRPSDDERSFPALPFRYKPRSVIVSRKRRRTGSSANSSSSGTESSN

This is a selection; strong and weak results do not stand in their true shares. The list includes weakly bound sequences.

In the case of “CCGATTAACATCAAAAAGCCCCGTGATGTTAATCGGGTCTTGATTCGCTTGACGCTGCTG”, the binding signal was 6.52 z-score in the assay with GST-Ap-NF-kB RHD, 1.43 z-score with GST-Co-NF-kB and 8.47 z-score with GST-Dm-Relish.

As to “CCGATTAACATCAGGGATACACCTGATGTTAATCGGGTCTTGATTCGCTTGACGCTGCTG”, the binding signal with GST-Ap-NF-kB RHD is 2.29 z-score; with GST-Co-NF-kB it was 1.56 z-score; with GST-Dm-Relish, 2.76 z-score.

With “CCGATTAACATCAAAGTACCCCCTGATGTTAATCGGGTCTTGATTCGCTTGACGCTGCTG”, the binding signal with GST-Ap-NF-kB RHD was determined as 6.74 z-score; in the assay with GST-Co-NF-kB, 6.64 z-score; in the assay with GST-Dm-Relish it was 4.39 z-score.

With “CCGATTAACATCAAAATTCCCGTTGATGTTAATCGGGTCTTGATTCGCTTGACGCTGCTG”, the binding signal with GST-Ap-NF-kB RHD amounted to 3.98 z-score; with GST-Co-NF-kB, 4.03 z-score; in the assay with GST-Dm-Relish, 5.57 z-score.

For “CCGATTAACATCACCTTTCCCCCTGATGTTAATCGGGTCTTGATTCGCTTGACGCTGCTG”, the binding signal with GST-Ap-NF-kB RHD turned out to be 6.53 z-score; with GST-Co-NF-kB, 9.42 z-score; with GST-Dm-Relish it was 2.89 z-score.

For the sequence “CCGATTAACATCAAGGGCATTCCTGATGTTAATCGGGTCTTGATTCGCTTGACGCTGCTG”, the binding signal with GST-Ap-NF-kB RHD worked out at 1.84 z-score; with GST-Co-NF-kB it was 0.348 z-score; with GST-Dm-Relish, 2.4 z-score.

For the sequence “CCGATTAACATCAAATTGCCCCCTGATGTTAATCGGGTCTTGATTCGCTTGACGCTGCTG”, the binding signal in the assay with GST-Ap-NF-kB RHD worked out at 4.13 z-score; with GST-Dm-Relish, 3.33 z-score.

Turning to “CCGATTAACATCAGGAATCACCCTGATGTTAATCGGGTCTTGATTCGCTTGACGCTGCTG”, the binding signal in the assay with GST-Ap-NF-kB RHD stood at 2.46 z-score; in the assay with GST-Co-NF-kB, 0.907 z-score; with GST-Dm-Relish, 7.17 z-score.

Consider “CCGATTAACATCAGGGATATACCTGATGTTAATCGGGTCTTGATTCGCTTGACGCTGCTG”, for which the binding signal in the assay with GST-Ap-NF-kB RHD stood at 3.17 z-score; in the assay with GST-Dm-Relish, 6.4 z-score.

With “CCGATTAACATCACGGGGATTTCTGATGTTAATCGGGTCTTGATTCGCTTGACGCTGCTG”, the binding signal was found to be 9.25 z-score with GST-Ap-NF-kB RHD and 9.88 z-score with GST-Dm-Relish.

On to “CCGATTAACATCACGTGATTCCCTGATGTTAATCGGGTCTTGATTCGCTTGACGCTGCTG”, for which the binding signal with GST-Ap-NF-kB RHD worked out at 2.22 z-score; with GST-Dm-Relish, 8.61 z-score.

With “CCGATTAACATCACCCCTTCCCCTGATGTTAATCGGGTCTTGATTCGCTTGACGCTGCTG”, the figures for the binding signal with GST-Ap-NF-kB RHD and with GST-Dm-Relish were 4.7 z-score and 2.5 z-score, respectively.

Turning to “CCGATTAACATCAGGGAGAACCCTGATGTTAATCGGGTCTTGATTCGCTTGACGCTGCTG”, the values for the binding signal in the assay with GST-Ap-NF-kB RHD, with GST-Co-NF-kB and in the assay with GST-Dm-Relish were 4.28 z-score, 1.72 z-score and 4.39 z-score, respectively.

In the case of “CCGATTAACATCACATTGGGAAATGATGTTAATCGGGTCTTGATTCGCTTGACGCTGCTG”, the binding signal is 0.714 z-score with GST-Ap-NF-kB RHD and 1.18 z-score with GST-Dm-Relish.

“CCGATTAACATCAGTTGGGAAAATGATGTTAATCGGGTCTTGATTCGCTTGACGCTGCTG”: the values for the binding signal with GST-Ap-NF-kB RHD, with GST-Co-NF-kB and with GST-Dm-Relish were 0.681 z-score, 2.64 z-score and 0.639 z-score, respectively.

“CCGATTAACATCAACTGGGAAAATGATGTTAATCGGGTCTTGATTCGCTTGACGCTGCTG”: the binding signal was found to be 1.66 z-score with GST-Ap-NF-kB RHD and 0.347 z-score with GST-Dm-Relish.

Consider “CCGATTAACATCAAGTACGGGAATGATGTTAATCGGGTCTTGATTCGCTTGACGCTGCTG”, for which the binding signal in the assay with GST-Ap-NF-kB RHD was found to be 1.11 z-score; in the assay with GST-Co-NF-kB, 2.85 z-score; in the assay with GST-Dm-Relish, 0.738 z-score.

For the sequence “CCGATTAACATCACGGGAACCCCTGATGTTAATCGGGTCTTGATTCGCTTGACGCTGCTG”, the binding signal is 5.04 z-score with GST-Ap-NF-kB RHD and 9.89 z-score with GST-Dm-Relish.

Regarding “CCGATTAACATCACCCCATCCCCTGATGTTAATCGGGTCTTGATTCGCTTGACGCTGCTG”, the values for the binding signal in the assay with GST-Ap-NF-kB RHD, with GST-Co-NF-kB and with GST-Dm-Relish were 4.19 z-score, 2.99 z-score and 2.37 z-score, respectively.

For the sequence “CCGATTAACATCATTATGGGAAATGATGTTAATCGGGTCTTGATTCGCTTGACGCTGCTG”, the binding signal in the assay with GST-Ap-NF-kB RHD is 0.604 z-score; with GST-Co-NF-kB it was 2.21 z-score; with GST-Dm-Relish, 0.644 z-score.

For “CCGATTAACATCAGGAGTCTCCCTGATGTTAATCGGGTCTTGATTCGCTTGACGCTGCTG”, the figures for the binding signal with GST-Ap-NF-kB RHD, with GST-Co-NF-kB and with GST-Dm-Relish were 1.69 z-score, 2.17 z-score and 0.485 z-score, respectively.

On to “CCGATTAACATCAACGGGAATTCTGATGTTAATCGGGTCTTGATTCGCTTGACGCTGCTG”, for which the binding signal with GST-Ap-NF-kB RHD amounted to 4.32 z-score; with GST-Dm-Relish it was 4.15 z-score.

“CCGATTAACATCAGGGTCTTATATGATGTTAATCGGGTCTTGATTCGCTTGACGCTGCTG”: the values for the binding signal in the assay with GST-Ap-NF-kB RHD, in the assay with GST-Co-NF-kB and with GST-Dm-Relish were 0.081 z-score, 0.142 z-score and 0.926 z-score, respectively.

Turning to “CCGATTAACATCAGTAGTGGGGCTGATGTTAATCGGGTCTTGATTCGCTTGACGCTGCTG”, the binding signal was determined as 0.671 z-score with GST-Ap-NF-kB RHD, 0.971 z-score with GST-Co-NF-kB and 0.449 z-score with GST-Dm-Relish.

In the case of “CCGATTAACATCAGGGAAAGATATGATGTTAATCGGGTCTTGATTCGCTTGACGCTGCTG”, the binding signal worked out at 2.67 z-score with GST-Ap-NF-kB RHD, 4.56 z-score in the assay with GST-Co-NF-kB and 0.539 z-score with GST-Dm-Relish.

As to “CCGATTAACATCAAGGGGAAAACTGATGTTAATCGGGTCTTGATTCGCTTGACGCTGCTG”, the figures for the binding signal in the assay with GST-Ap-NF-kB RHD and in the assay with GST-Dm-Relish were 7.51 z-score and 5.32 z-score, respectively.

Turning to “CCGATTAACATCAAAACCCCCCCTGATGTTAATCGGGTCTTGATTCGCTTGACGCTGCTG”, the figures for the binding signal with GST-Ap-NF-kB RHD, in the assay with GST-Co-NF-kB and in the assay with GST-Dm-Relish were 8.72 z-score, 6.13 z-score and 9.97 z-score, respectively.

For the sequence “CCGATTAACATCAAATTCCCATGTGATGTTAATCGGGTCTTGATTCGCTTGACGCTGCTG”, the binding signal with GST-Ap-NF-kB RHD was 2.41 z-score; with GST-Dm-Relish it was 3.99 z-score.

Consider “CCGATTAACATCAGGGATTCACCTGATGTTAATCGGGTCTTGATTCGCTTGACGCTGCTG”, for which the binding signal in the assay with GST-Ap-NF-kB RHD was 5.22 z-score; with GST-Dm-Relish, 9.89 z-score.

Regarding “CCGATTAACATCAGGGGGAACGATGATGTTAATCGGGTCTTGATTCGCTTGACGCTGCTG”, the binding signal with GST-Ap-NF-kB RHD was 5.18 z-score; in the assay with GST-Dm-Relish, 2.42 z-score.

Take “CCGATTAACATCAGTGGGAAACATGATGTTAATCGGGTCTTGATTCGCTTGACGCTGCTG”: the binding signal is 0.739 z-score with GST-Ap-NF-kB RHD and 0.501 z-score with GST-Dm-Relish.
